Among all 48,000 compounds or so, about 120 (0.25%) were called active. Inconclusive results (about 4%) are left out. Calls follow the shape of the dose curve; as a rule, active = well fitted activation curve with a large enough effect; inconclusive = small, poorly fitted or top-dose-only effect, or another doubt; inactive = no such curve, though single readings can be large or run the other way. The list shows a part of the results.
Experiment: Primary qHTS for Identification of Small Molecule Activators of Huntingtin-Antisense Promoter Activity; also: nearly all actives have a fitted effect of over 55% in size
Conditions: HEK293 HTT-AS promoter firefly luciferase reporter (activity 0% = vehicle and -100% = no light), 24 h; series mostly up to 57.5 µM; activity change, positive = activation: at the top concentration
Procedure, shortened: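 Firefly luciferase readout (Dual-Glo, 10 min RT) after 24 h, 37 °C compound exposure (final up to 57.5 uM) of HEK293 reporter cells cultured 24 h beforehand; PTC124 at 50 uM final as control inhibitor; activity scaled vehicle 0%, zero RLU -100%.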

Activity change, positive = activation, inactive:
CCN(CC)S(=O)(=O)c1ccc(C(=O)NC2CC(=O)N(c3ccc(OC)c(OC)c3)C2)cc1 (stereo unspecified) -21.9%
O=C(c1ccccc1Cl)N1CCC(c2nc3ccccc3s2)CC1 -20.8%
CC(=O)c1ccc(NC(=O)c2cc3sccc3n2Cc2ccc(Cl)cc2)cc1 -8.88%
Cc1ccc(N(CC(=O)NCCSc2ccccc2)S(=O)(=O)c2ccc(F)cc2)cc1 -59.2%
CCOCCCNC(=O)C(=O)Nc1c2c(nn1-c1ccccc1)CSC2 -14.9%
O=C(COc1ccc(Cl)cc1)NCC(c1ccco1)S(=O)(=O)c1ccc(F)cc1 (stereo unspecified) -28.6%
COc1ccc(CNC(=O)c2cc3cccc4c3n2CC(C)S4)cc1OC (stereo unspecified) -24.5%
COCCCn1c(=O)c2sccc2n2c(CCCC(=O)Nc3cccc(OC)c3)nnc12 -12%
Cc1ccc(CNS(=O)(=O)c2ccc3[nH]c4c(c3c2)CCCCC4)cc1 -25.1%
Cc1cccc(NC(=O)C2CCCN(S(=O)(=O)c3ccc4c(c3)CCCC(=O)N4)C2)c1 (stereo unspecified) -23.6%
COCCCn1c(SCC(=O)Nc2ccc(F)cc2)nc2c(sc3ccccc32)c1=O -12.9%
COc1cccc(Nc2nc3c(S(=O)(=O)c4cc(C)ccc4C)nnn3c3ccsc23)c1 -19.3%
Cc1ccc(NC(=O)N2CCN(Cc3nc4ccc(C)cc4o3)CC2)cc1 -21.8%
CCOC(=O)N1CCN(S(=O)(=O)N2CCCC(C(=O)NCc3cc(Br)ccc3OC)C2)CC1 (stereo unspecified) -26.4%
CC(C)c1ccc2c(c1)c(SC(C)(C)C)c(CC(C)(C)C(=O)O)n2Cc1ccc(Cl)cc1 -29%
Cc1cc(=O)c2cc(C(=O)Nc3ccc(F)cc3)ccc2[nH]1 2.27%
Cc1cc(C)c(NC(=O)CSC2=Nc3ccccc3C3=NC(CC(=O)NCc4cccs4)C(=O)N23)c(C)c1 (stereo unspecified) -14%
CCN1CCc2nc3sc(C(=O)Nc4ccccc4OC(F)(F)F)c(N)c3cc2C1 -6.15%
COc1ccc(C)cc1-n1nnc(S(=O)(=O)c2ccc(C)cc2)c1C -23.2%
O=C(Cn1c(-c2cccs2)cc2cc(F)ccc21)N1CCN(c2ccccc2)CC1 -23.5%
COc1ccc(CNc2oc(/C=C/c3cc(OC)c(OC)c(OC)c3)nc2C#N)cc1 -23.8%
CCOc1ccc(Nc2oc(/C=C/c3ccc(OC)c(OC)c3)nc2C#N)cc1 -18.3%
Cc1cccn2c(=O)c(C(=O)NC(C)c3ccccc3)c(O)nc12 (stereo unspecified) -28.3%
O=C(Nc1sc2c(c1C(=O)NCC1CCCO1)CCC2)c1cc(=O)c2cc(Cl)ccc2o1 (stereo unspecified) -6.59%
Cc1ccc(CCNC(=O)c2ccc3c(c2)N(Cc2ccccc2F)C(=O)c2ccccc2S3=O)cc1 (stereo unspecified) -1.02%
COc1cccc(NC(=O)CCCn2c(=O)c3cccn3c3cccnc32)c1 -13.4%
CCOC(=O)c1cc(-c2ccccc2)n(CC(=O)Nc2ccccc2OCC)c1C -5.58%
Cn1nnnc1SCCCNCc1cc(Br)ccc1OCc1ccccc1F -25.6%
Fc1ccc(-c2csc(=Nc3cccc(C(F)(F)F)c3)n2Cc2ccc3c(c2)OCO3)cc1 -10.9%
O=C1C(=O)N(C2CCNCC2)CCN1Cc1ccccc1 -1.6%
Cc1cc(Nc2nc(N[C@@H](C)c3ccc(F)cc3)c(C#N)cc2F)n[nH]1 -2.24%
Cc1cccc(C)c1NC(=O)CCCn1c(=O)c2cccn2c2ccccc21 -6.66%
Fc1ccc(-c2cc(-c3ccccc3)c3c(n2)-c2ccccc2OC3)cc1 -10.7%
COc1ccc(-c2nc(CCNC(=O)c3ccccc3)cs2)cc1OC -19.2%
CCOC(=O)c1c(S(=O)(=O)NCC(=O)Nc2ccc(C(C)=O)cc2)c(C)n(C)c1C -9.63%
COc1cc(NC(=O)CN2C(=O)COc3ccc(S(=O)(=O)NC4CCCC4)cc32)cc(OC)c1 -11.4%
CCc1ccc(NC(=O)c2ccc(Cn3nc(N4CCN(c5ccccc5)CC4)ccc3=O)o2)cc1 -32.3%
O=C(c1ccc2c(c1)N(Cc1c(F)cccc1Cl)C(=O)c1ccccc1S2)N1CCCC1 -25.2%
Cc1ccc(Cl)cc1-n1ncc2c(Nc3ccc4c(c3)OCCO4)ncnc21 -42.8%
O=C(CO)N1CCC(c2[nH]nc(-c3ccc(Cl)cc3)c2-c2ccncn2)CC1 -16.2%
CC(=O)N1CCCC1c1nc2ccccc2n1Cc1ccc(F)cc1 (stereo unspecified) -11.1%
COc1cc(NS(=O)(=O)c2c(C(=O)N3CCCCC3)c(C)n(C)c2C)cc(OC)c1OC -2.14%
CCC(C)c1ccccc1OCC(=O)Nc1ccc(S(=O)(=O)Nc2cc(C)on2)cc1 (stereo unspecified) -5.01%
CC1CCc2c(sc3nnn(CC(=O)Nc4c(C(C)C)cccc4C(C)C)c(=O)c23)C1 (stereo unspecified) -20.1%
O=C(Nc1cccc2cccnc12)c1ccc(-c2cccc(Cl)c2)o1 -0.514%
COc1ccc(-c2cc3ncc(C(=O)c4cc([N+](=O)[O-])ccc4O)cn3n2)cc1 -69%
CCCn1c2ccccc2c2cnn(CC(=O)NCCCN(CC)c3ccccc3)c(=O)c21 -21.7%
CCc1ccc(NS(=O)(=O)c2ccc3[nH]cc(C(=O)NCc4ccc(C)cc4)c(=O)c3c2)cc1 -31.6%
CCOc1ccc(-n2c(=O)c3c4c(sc3n(Cc3cccc(C)c3)c2=O)CCCC4)cc1 16.7%
Clc1ccc2nc(Nc3ccccc3Cl)nc(-c3ccccc3)c2c1 10%
CC(=O)O[C@@H]1C(=O)O[C@@H]2[C@H]1OC(=O)[C@@H]2OC(C)=O -17.8%
CCc1ccc(NCc2cc3cc4c(cc3n(CC(=O)Nc3ccccc3Cl)c2=O)OCO4)cc1 -27.1%
CCOCCCNC(=O)C1CCN(c2cc(C)nc3c(-c4ccc(Cl)cc4)c(C)nn23)CC1 -0.178%
COc1ccc(OC)c(NC(=O)c2c(NCc3ccc(OC)c(OC)c3)sc3c2CCC3)c1 -15.6%
CCOc1ccccc1NC(=O)Nc1cc(C(=O)NCc2ccc(C)cc2)ccc1N1CCCC1 -5.26%
O=C(Nc1ccc(Br)cc1F)C(NS(=O)(=O)c1cccc2nsnc12)c1ccccc1 (stereo unspecified) -4.49%
Cc1ccc(NC(=O)c2cc3c(-c4ccccc4)nn(-c4ccccc4)c3s2)cc1 -0.918%
COc1ccc(NC(=O)Cn2c(=O)n(CC(=O)NCCc3ccccc3)c(=O)c3ccccc32)cc1 -6.62%
COc1ccc(CNC(=O)c2cc3c(-c4ccccc4F)nn(C)c3s2)cc1 -29.3%
CC/C(=C(/CC)c1ccc(O)cc1)c1ccc(O)cc1 -44.5%
COc1ccc(NC(=O)CN2C(=O)CCc3cc(S(=O)(=O)N4CCOCC4)ccc32)c(OC)c1 -18%

Reference: PubChem BioAssay AID1508624 (National Center for Advancing Translational Sciences (NCATS), 2021)
